Test results from the supplement of paper PMC8728848.
This is one part of the list.

Experiments:
Experiment in all cases: glycan array binding signal (z-score within array); higher = stronger binding
Details in all cases: glycan notation: IUPAC condensed, linker removed
[1] = target: Neu5Ac(a2-6)Gal(b1-4)GlcNAc(b1-2)Man(a1-3)[Neu5Ac(a2-3)Gal(b1-4)GlcNAc(b1-2)Man(a1-6)]Man(b1-4)GlcNAc(b1-4)GlcNAc
Method in brief: (§1)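 The binding signal is a Z-score computed within each array. Data were drawn from 3228 arrays in the Consortium for Functional Glycomics database, restricted to those with a known protein sequence. Scores were averaged over arrays of the same protein sequence at different concentrations or buffers, and over linkers, and negative values can be taken as non-binding.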

[2] = target: Neu5Ac(a2-6)Gal(b1-4)GlcNAc(b1-2)Man(a1-3)[Neu5Ac(a2-6)Gal(b1-4)GlcNAc(b1-2)Man(a1-6)]Man(b1-4)GlcNAc(b1-4)GlcNAc
Method in brief: as §1

[3] = target: Neu5Ac(a2-6)Gal(b1-4)GlcNAc(b1-2)Man(a1-3)[Neu5Ac(a2-6)Gal(b1-4)GlcNAc(b1-2)Man(a1-6)]Man(b1-4)GlcNAc(b1-4)[Fuc(a1-6)]GlcNAc
Method in brief: as §1

[4] = target: Neu5Ac(a2-6)Gal(b1-4)GlcNAc(b1-2)Man(a1-6)Man(b1-4)GlcNAc(b1-4)GlcNAc
Method in brief: as §1

[5] = target: Neu5Ac(a2-6)Gal(b1-4)GlcNAc(b1-2)Man(a1-6)[Gal(b1-4)GlcNAc(b1-2)Man(a1-3)]Man(b1-4)GlcNAc(b1-4)GlcNAc
Method in brief: as §1

[6] = target: Neu5Ac(a2-6)Gal(b1-4)GlcNAc(b1-2)Man(a1-6)[GlcNAc(b1-2)Man(a1-3)]Man(b1-4)GlcNAc(b1-4)GlcNAc
Method in brief: as §1

[7] = target: Neu5Ac(a2-6)Gal(b1-4)GlcNAc(b1-2)Man(a1-6)[Man(a1-3)]Man(b1-4)GlcNAc(b1-4)GlcNAc
Method in brief: as §1

[8] = target: Neu5Ac(a2-6)Gal(b1-4)GlcNAc(b1-2)[Neu5Ac(a2-6)Gal(b1-4)GlcNAc(b1-4)]Man(a1-3)[GlcNAc(b1-4)][Neu5Ac(a2-6)Gal(b1-4)GlcNAc(b1-2)[Neu5Ac(a2-6)Gal(b1-4)GlcNAc(b1-6)]Man(a1-6)]Man(b1-4)GlcNAc(b1-4)GlcNAc
Method in brief: as §1

[9] = target: Neu5Ac(a2-6)Gal(b1-4)GlcNAc(b1-2)[Neu5Ac(a2-6)Gal(b1-4)GlcNAc(b1-4)]Man(a1-3)[GlcNAc(b1-4)][Neu5Ac(a2-6)Gal(b1-4)GlcNAc(b1-4)Man(a1-6)]Man(b1-4)GlcNAc(b1-4)GlcNAc
Method in brief: as §1

[10] = target: Neu5Ac(a2-6)Gal(b1-4)GlcNAc(b1-2)[Neu5Ac(a2-6)Gal(b1-4)GlcNAc(b1-6)]Man(a1-6)[Neu5Ac(a2-6)Gal(b1-4)GlcNAc(b1-2)Man(a1-3)][GlcNAc(b1-4)]Man(b1-4)GlcNAc(b1-4)GlcNAc
Method in brief: as §1

[11] = target: Neu5Ac(a2-6)Gal(b1-4)GlcNAc(b1-3)Gal(b1-3)GlcNAc
Method in brief: as §1

[12] = target: Neu5Ac(a2-6)Gal(b1-4)GlcNAc(b1-3)Gal(b1-4)GlcNAc
Method in brief: as §1

[13] = target: Neu5Ac(a2-6)Gal(b1-4)GlcNAc(b1-3)Gal(b1-4)GlcNAc(b1-2)Man(a1-3)[Neu5Ac(a2-6)Gal(b1-4)GlcNAc(b1-3)Gal(b1-4)GlcNAc(b1-2)Man(a1-6)]GalNAc
Method in brief: as §1

[14] = target: Neu5Ac(a2-6)Gal(b1-4)GlcNAc(b1-3)Gal(b1-4)GlcNAc(b1-3)Gal(b1-4)GlcNAc
Method in brief: as §1

[15] = target: Neu5Ac(a2-6)Gal(b1-4)GlcNAc(b1-3)Gal(b1-4)GlcNAc(b1-3)Gal(b1-4)GlcNAc(b1-2)Man(a1-3)[Neu5Ac(a2-6)Gal(b1-4)GlcNAc(b1-3)Gal(b1-4)GlcNAc(b1-3)Gal(b1-4)GlcNAc(b1-2)Man(a1-6)]GalNAc
Method in brief: as §1

[16] = target: Neu5Ac(a2-6)Gal(b1-4)GlcNAc(b1-3)Gal(b1-4)GlcNAc(b1-3)GalNAc
Method in brief: as §1

[17] = target: Neu5Ac(a2-6)Gal(b1-4)GlcNAc(b1-3)Gal(b1-4)GlcNAc(b1-3)[Neu5Ac(a2-6)Gal(b1-4)GlcNAc(b1-3)Gal(b1-4)GlcNAc(b1-6)]GalNAc
Method in brief: as §1

[18] = target: Neu5Ac(a2-6)Gal(b1-4)GlcNAc(b1-3)Gal(b1-4)GlcNAc(b1-6)[Gal(b1-3)]GalNAc
Method in brief: as §1

[19] = target: Neu5Ac(a2-6)Gal(b1-4)GlcNAc(b1-3)Gal(b1-4)[Fuc(a1-3)]GlcNAc(b1-3)Gal(b1-4)[Fuc(a1-3)]GlcNAc
Method in brief: as §1

[20] = target: Neu5Ac(a2-6)Gal(b1-4)GlcNAc(b1-3)GalNAc
Method in brief: as §1

[21] = target: Neu5Ac(a2-6)Gal(b1-4)GlcNAc(b1-3)[Neu5Ac(a2-6)Gal(b1-4)GlcNAc(b1-6)]GalNAc
Method in brief: as §1

[22] = target: Neu5Ac(a2-6)Gal(b1-4)GlcNAc(b1-6)GalNAc
Method in brief: as §1

[23] = target: Neu5Ac(a2-6)Gal(b1-4)GlcNAc(b1-6)[Gal(b1-3)GlcNAc(b1-3)]Gal(b1-4)Glc
Method in brief: as §1

[24] = target: Neu5Ac(a2-6)Gal(b1-4)GlcNAc(b1-6)[Gal(b1-3)]GalNAc
Method in brief: as §1

[25] = target: Neu5Ac(a2-6)Gal(b1-4)GlcNAc6S
Method in brief: as §1

[26] = target: Neu5Ac(a2-6)GalNAc
Method in brief: as §1

[27] = target: Neu5Ac(a2-6)GalNAc(b1-4)GlcNAc
Method in brief: as §1

[28] = target: Neu5Ac(a2-6)GalNAc(b1-4)GlcNAc6S
Method in brief: as §1

[29] = target: Neu5Ac(a2-6)GlcNAc(b1-4)GlcNAc
Method in brief: as §1

[30] = target: Neu5Ac(a2-6)GlcNAc(b1-4)GlcNAc(b1-4)GlcNAc
Method in brief: as §1

B1: SBD-G4S3-Fc (protein)
chain: MASIPSSASVQLDSYNYDGSTFSGKIYVKNIAYSKKVTVVYADGSDNWNNNGNIIAASFSGPISGSNYEYWTFSASVKGIKEFYIKYEVSGKTYYDNNNSANYQVSTGGGGSGGGGSGGGGSEFVPRDCGCKPCICTVPEVSSVFIFPPKPKDVLTITLTPKVTCVVVDISKDDPEVQFSWFVDDVEVHTAQTQPREEQFNSTFRSVSELPIMHQDWLNGKEFKCRVNSAAFPAPIEKTISKTKGRPKAPQVYTIPPPKEQMAKDKVSLTCMITDFFPEDITVEWQWNGQPAENYKNTQPIMDTDGSYFVYSKLNVQKSNWEAGNTFTCSVLHEGLHNHHTEKSLSHSPGAA
glycan array binding signal (z-score) [1]: -0.142
glycan array binding signal (z-score) [2]: 0.104
glycan array binding signal (z-score) [3]: -0.3
glycan array binding signal (z-score) [4]: -0.219
glycan array binding signal (z-score) [5]: -0.395
glycan array binding signal (z-score) [6]: 0.137
glycan array binding signal (z-score) [7]: 0.293
glycan array binding signal (z-score) [8]: 0.258
glycan array binding signal (z-score) [9]: -0.012
glycan array binding signal (z-score) [10]: -0.196
glycan array binding signal (z-score) [11]: -0.614
glycan array binding signal (z-score) [12]: -0.014
glycan array binding signal (z-score) [13]: -0.051
glycan array binding signal (z-score) [14]: 0.075
glycan array binding signal (z-score) [15]: 1.23
glycan array binding signal (z-score) [16]: -0.176
glycan array binding signal (z-score) [17]: -0.226
glycan array binding signal (z-score) [18]: 0.674
glycan array binding signal (z-score) [19]: -0.041
glycan array binding signal (z-score) [20]: -0.264
glycan array binding signal (z-score) [21]: -0.37
glycan array binding signal (z-score) [22]: 0.154
glycan array binding signal (z-score) [23]: 0.209
glycan array binding signal (z-score) [24]: -0.2
glycan array binding signal (z-score) [25]: -0.205
glycan array binding signal (z-score) [26]: -0.304
glycan array binding signal (z-score) [27]: -0.316
glycan array binding signal (z-score) [28]: -0.27
glycan array binding signal (z-score) [29]: 0.005
glycan array binding signal (z-score) [30]: -0.461
